Results reported in patent US20240392013A1, “IL1RAP ANTIBODIES AND USES THEREOF” (STELEXIS THERAPEUTICS, LLC, priority 2021, published 2024).

Test system: SK-MEL-5 cells
Experiment: Jurkat-Lucia NFAT-CD16 ADCC reporter assay against SK-MEL-5 cells
Type: cell-based
Conditions: SK-MEL-5 target cells
Excerpt: Methods: ADCC activity is mediated through binding of NK cell's CD16 receptors to the Fc region of antibodies. A Jurkat-Lucia NFAT-CD16 ADCC Reporter cell assay (Invivogen, Cat #jktl-nfat-cd16; https://www.invivogen.com/jurkat-lucia-nfat-adcc-adcp-cells) was used to analyze IL1RAP mAb STLX2012 for ADCC activity. Briefly, the Jurkat cell line was engineered to express the cell surface Fc receptor CD16A (FcγRIIIA) and the Lucia luciferase reporter gene. ADCC is triggered by CD16A cross-linking upon antigen-bound antibody binding at the surface of immune effector cells. Cells are maintained in the presence of zeocin (100 μg/ml) and blasticidin (10 μg/ml).
The STLX2012-DLE antibody was then analyzed for ADCC activity using the Jurkat-Lucia NFAT-CD16 ADCC Reporter cell assay, described in Example 11 above.

B1: STLX2012-DLE: STLX2012 with Fc substitution mutations S239D, A330L, I332E; HC SEQ ID NO: 109, LC SEQ ID NO: 110 (antibody)
heavy: QVQLLQSGAEVKKPGSSVKVSCKASGGTFSIYAIDWVRQAPGQGLEWMGGIIPIFGTANSAQKFQGRVTITADKSTSTAYMELSSLRSEDTAVYYCARNGATSDAFDMWGQGTMVTVSSASTKGPSVFPLAPSSKSTSGGTAALGCLVKDYFPEPVTVSWNSGALTSGVHTFPAVLQSSGLYSLSSVVTVPSSSLGTQTYICNVNHKPSNTKVDKKVEPKSCDKTHTCPPCPAPELLGGPDVFLFPPKPKDTLMISRTPEVTCVVVDVSHEDPEVKFNWYVDGVEVHNAKTKPREEQYNSTYRVVSVLTVLHQDWLNGKEYKCKVSNKALPLPEEKTISKAKGQPREPQVYTLPPSRDELTKNQVSLTCLVKGFYPSDIAVEWESNGQPENNYKTTPPVLDSDGSFFLYSKLTVDKSRWQQGNVFSCSVMHEALHNHYTQKSLSLSPGK
light: EIVLTQSPGTLSLSPGERATLSCRASLSVSSNYLAWFQQRPGQAPRLLIHGVSRRATGIPDRFSGSGSGTDFTLTISRLEPEDFAVYYCQQYGSSPLTFGGGTKVEIKRTVAAPSVFIFPPSDEQLKSGTASVVCLLNNFYPREAKVQWKVDNALQSGNSQESVTEQDSKDSTYSLSSTLTLSKADYEKHKVYACEVTHQGLSSPVTKSFNRGEC
modifications: STLX 2012 HC DLE; STLX 2012 LC
ADCC activity (reporter): enhanced ADCC activity compared to original STLX2012 antibody
